Test results taken from the supplement of paper PMC8285479.
Where a name gives a salt, the structure may show the parent alone. ± gives the standard deviation of the averaged measurements. In all, about 1,900 compounds were measured (“normalised cell viability (NPI; 0 = phenylarsine oxide control, 1 = DMSO control)”: median about 1, lowest 2% from about 0.039 on). Some of the results follow.

Tested on: NCI-H1944
Assay: normalised cell viability (NPI; 0 = phenylarsine oxide control, 1 = DMSO control) (fraction of DMSO control); NCI-H1944 is a non-small cell lung cancer line; higher = more viable cells (less compound toxicity)
Conditions: 6 days
[1] = glucocorticoid arm: hydrocortisone 2.75 uM co-treatment, compound 1 µM
[2] = glucocorticoid arm: hydrocortisone 2.75 uM co-treatment, compound 5 µM
[3] = glucocorticoid arm: hydrocortisone 2.75 uM pre-treated 2 days and continued, compound 1 µM
[4] = glucocorticoid arm: hydrocortisone 2.75 uM pre-treated 2 days and continued, compound 5 µM
[5] = glucocorticoid arm: vehicle, compound 1 µM
[6] = glucocorticoid arm: vehicle, compound 5 µM
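Note: CTB read-out in 384-well plates, mean of triplicate wells, normalised per plate against 1 µM phenylarsine oxide and 0.1% DMSO, compounds added 24 h after seeding.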

N[C@@H](Cn1ccc(=O)[nH]c1=O)C(=O)O [S(-)-Willardiine]
normalised cell viability [1]: 1.007 ± 0.0058 | normalised cell viability [2]: 1.023 ± 0.0058 | normalised cell viability [3]: 0.847 ± 0.28 | normalised cell viability [4]: 1.02 ± 0.015 | normalised cell viability [5]: 1.002 ± 0.007 | normalised cell viability [6]: 1.007 ± 0.0058

CCCCN1[C@@H]2CC[C@H]1CC(OC(c1ccc(F)cc1)c1ccc(F)cc1)C2 (some centres undefined) [JHW 007 hydrochloride]
normalised cell viability [1]: 0.969 ± 0.017 | normalised cell viability [2]: 0.629 ± 0.055 | normalised cell viability [3]: 0.987 ± 0.011 | normalised cell viability [4]: 0.969 ± 0.011 | normalised cell viability [5]: 0.993 ± 0.003 | normalised cell viability [6]: 0.228 ± 0.12

CC12CCC3C(CCC4=C(O)C(=O)CCC43C)C1CCC2=O (centres undefined) [4-Androsten-4-ol-3,17-dione]
normalised cell viability [1]: 0.9977 ± 0.0021 | normalised cell viability [2]: 0.9747 ± 0.0093 | normalised cell viability [3]: 0.999 ± 0.001 | normalised cell viability [4]: 1 ± 0.011 | normalised cell viability [5]: 0.995 ± 0.015 | normalised cell viability [6]: 1.003 ± 0.0061

O=C(N[C@H]1CN2CCC1CC2)c1ccc(Cl)cc1
normalised cell viability [1]: 1.02 ± 0.01 | normalised cell viability [2]: 1.01 ± 0.022 | normalised cell viability [3]: 1.023 ± 0.0058 | normalised cell viability [4]: 1.02 ± 0.015 | normalised cell viability [5]: 0.998 ± 0.0035 | normalised cell viability [6]: 1.013 ± 0.0058

O=[N+]([O-])c1ccc2nc(N3CCNCC3)ccc2c1 [Quipazine, 6-nitro-, maleate]
normalised cell viability [1]: 1.013 ± 0.0058 | normalised cell viability [2]: 0.992 ± 0.0035 | normalised cell viability [3]: 0.851 ± 0.29 | normalised cell viability [4]: 1.063 ± 0.0058 | normalised cell viability [5]: 1.023 ± 0.0058 | normalised cell viability [6]: 1.02

c1ccc2c(N3CCNCC3)cccc2c1 [1-(1-Naphthyl)piperazine hydrochloride]
normalised cell viability [1]: 1.01 ± 0.01 | normalised cell viability [2]: 1.004 ± 0.0098 | normalised cell viability [3]: 1.02 ± 0.032 | normalised cell viability [4]: 1.02 ± 0.01 | normalised cell viability [5]: 0.9973 ± 0.0046 | normalised cell viability [6]: 1 ± 0.011

CCCN(CCC)CCc1c[nH]c2ccc(C(N)=O)cc12 [N,N-Dipropyl-5-carboxamidotryptamine maleate]
normalised cell viability [1]: 0.999 ± 0.01 | normalised cell viability [2]: 0.973 ± 0.011 | normalised cell viability [3]: 0.9867 ± 0.0055 | normalised cell viability [4]: 0.9693 ± 0.0071 | normalised cell viability [5]: 0.994 ± 0.0027 | normalised cell viability [6]: 0.9917 ± 0.0021

CC(C)N(CCC(C(N)=O)(c1ccccc1)c1ccccn1)C(C)C (centres undefined) [Disopyramide]
normalised cell viability [1]: 0.989 ± 0.016 | normalised cell viability [2]: 0.989 ± 0.0095 | normalised cell viability [3]: 0.998 ± 0.02 | normalised cell viability [4]: 0.983 ± 0.0061 | normalised cell viability [5]: 0.982 ± 0.0066 | normalised cell viability [6]: 0.984 ± 0.0027

CC(C)N(CCC(C(N)=O)(c1ccccc1)c1ccccn1)C(C)C (centres undefined) [Disopyramide phosphate]
normalised cell viability [1]: 1.01 ± 0.01 | normalised cell viability [2]: 1.013 ± 0.0058 | normalised cell viability [3]: 1.01 ± 0.011 | normalised cell viability [4]: 1.01 ± 0.011 | normalised cell viability [5]: 0.9843 ± 0.0063 | normalised cell viability [6]: 0.982 ± 0.0046

N=C(N)NN [Aminoguanidine hemisulfate]
normalised cell viability [1]: 1.023 ± 0.0058 | normalised cell viability [2]: 0.99 ± 0.015 | normalised cell viability [3]: 1.02 | normalised cell viability [4]: 0.999 ± 0.016 | normalised cell viability [5]: 1.007 ± 0.0058 | normalised cell viability [6]: 1.007 ± 0.0058

N=C(N)NN [Aminoguanidine hydrochloride]
normalised cell viability [1]: 0.9863 ± 0.0046 | normalised cell viability [2]: 0.971 ± 0.0087 | normalised cell viability [3]: 0.9883 ± 0.0047 | normalised cell viability [4]: 0.965 ± 0.019 | normalised cell viability [5]: 0.971 ± 0.015 | normalised cell viability [6]: 0.976 ± 0.0046

C=CCN1C[C@H](C)N([C@H](c2ccc(C(=O)N(CC)CC)cc2)c2cccc(OC)c2)C[C@H]1C
normalised cell viability [1]: 0.9903 ± 0.009 | normalised cell viability [2]: 0.995 ± 0.017 | normalised cell viability [3]: 1.01 ± 0.034 | normalised cell viability [4]: 0.991 ± 0.0066 | normalised cell viability [5]: 0.994 ± 0.0066 | normalised cell viability [6]: 0.993 ± 0.007

CC(Cc1ccc(OCC(=O)O)cc1)NCC(O)c1cccc(Cl)c1 (centres undefined)
normalised cell viability [1]: 0.987 ± 0.028 | normalised cell viability [2]: 1 ± 0.017 | normalised cell viability [3]: 0.9923 ± 0.0086 | normalised cell viability [4]: 0.998 ± 0.017 | normalised cell viability [5]: 0.99 ± 0.012 | normalised cell viability [6]: 0.996 ± 0.0069

NCCc1ccc(S(=O)(=O)F)cc1 [4-(2-Aminoethyl)benzenesulfonyl fluoride hydrochloride]
normalised cell viability [1]: 0.985 ± 0.01 | normalised cell viability [2]: 1.01 ± 0.01 | normalised cell viability [3]: 0.996 ± 0.013 | normalised cell viability [4]: 1.01 ± 0.025 | normalised cell viability [5]: 0.988 ± 0.016 | normalised cell viability [6]: 0.988 ± 0.0053

CN[C@@H]1C[C@@H](c2ccc(Cl)c(Cl)c2)c2ccccc21 [Indatraline hydrochloride]
normalised cell viability [1]: 1 ± 0.0095 | normalised cell viability [2]: 0.931 ± 0.02 | normalised cell viability [3]: 1.02 ± 0.021 | normalised cell viability [4]: 1.04 ± 0.084 | normalised cell viability [5]: 1.01 | normalised cell viability [6]: 1.03 ± 0.05

O=[N+]([O-])c1cc(O)c(O)c([N+](=O)[O-])c1 [3,5-Dinitrocatechol]
normalised cell viability [1]: 0.993 ± 0.0076 | normalised cell viability [2]: 0.998 ± 0.01 | normalised cell viability [3]: 1.001 ± 0.0085 | normalised cell viability [4]: 0.994 ± 0.015 | normalised cell viability [5]: 0.9977 ± 0.004 | normalised cell viability [6]: 1.007 ± 0.0058

CN1[C@@H]2CC[C@H]1C[C@@H](OC(=O)[C@H](CO)c1ccccc1)C2 [Hyoscyamine]
normalised cell viability [1]: 0.959 ± 0.011 | normalised cell viability [2]: 0.981 ± 0.012 | normalised cell viability [3]: 0.9827 ± 0.0042 | normalised cell viability [4]: 0.979 ± 0.037 | normalised cell viability [5]: 0.9847 ± 0.0072 | normalised cell viability [6]: 0.996 ± 0.014

CN1[C@@H]2CC[C@H]1C[C@@H](OC(=O)[C@H](CO)c1ccccc1)C2 [L-Hyoscyamine]
normalised cell viability [1]: 1.01 ± 0.017 | normalised cell viability [2]: 0.993 ± 0.012 | normalised cell viability [3]: 0.9977 ± 0.004 | normalised cell viability [4]: 0.987 ± 0.015 | normalised cell viability [5]: 1.007 ± 0.0058 | normalised cell viability [6]: 1.002 ± 0.0068

C[C@H](N)CN1CCc2ccc(Br)cc21 [VER-3323 hemifumarate salt]
normalised cell viability [1]: 1.001 ± 0.0085 | normalised cell viability [2]: 1.01 ± 0.024 | normalised cell viability [3]: 1 ± 0.011 | normalised cell viability [4]: 1.05 ± 0.021 | normalised cell viability [5]: 0.9897 ± 0.0015 | normalised cell viability [6]: 1 ± 0.015

C=CCN(C1=NCCN1)c1c(Cl)cccc1Cl [Alinidine]
normalised cell viability [1]: 0.999 ± 0.012 | normalised cell viability [2]: 0.992 ± 0.016 | normalised cell viability [3]: 1.02 ± 0.049 | normalised cell viability [4]: 1 ± 0.021 | normalised cell viability [5]: 0.9973 ± 0.0031 | normalised cell viability [6]: 0.9913 ± 0.0035

CC[C@@]1(O)C(=O)OCc2c1cc1n(c2=O)Cc2cc3ccccc3nc2-1 [(S)-(+)-Camptothecin]
normalised cell viability [1]: 0.066 ± 0.014 | normalised cell viability [2]: 0.00107 ± 0.0017 | normalised cell viability [3]: 0.328 ± 0.025 | normalised cell viability [4]: 0.0202 ± 0.0036 | normalised cell viability [5]: 0.0279 ± 0.0022 | normalised cell viability [6]: -0.000721 ± 0.0022

CN1c2ccccc2C(NCCCCCCC(=O)O)c2ccc(Cl)cc2S1(=O)=O (centres undefined) [Tianeptine sodium]
normalised cell viability [1]: 1.007 ± 0.0058 | normalised cell viability [2]: 1 ± 0.035 | normalised cell viability [3]: 1.02 ± 0.015 | normalised cell viability [4]: 1.02 ± 0.024 | normalised cell viability [5]: 0.995 ± 0.0056 | normalised cell viability [6]: 0.9927 ± 0.0025

CN1CCN(c2ccc([N+](=O)[O-])c3no[n+]([O-])c23)CC1
normalised cell viability [1]: 0.984 ± 0.015 | normalised cell viability [2]: 1.04 ± 0.011 | normalised cell viability [3]: 0.993 ± 0.0076 | normalised cell viability [4]: 1.01 ± 0.01 | normalised cell viability [5]: 0.984 ± 0.011 | normalised cell viability [6]: 0.988 ± 0.01

NC(CCP(=O)(O)O)C(=O)O (racemic) [(±)-2-Amino-4-phosphonobutyric acid]
normalised cell viability [1]: 0.9883 ± 0.0042 | normalised cell viability [2]: 0.998 ± 0.0017 | normalised cell viability [3]: 1.01 ± 0.014 | normalised cell viability [4]: 1 ± 0.042 | normalised cell viability [5]: 0.9923 ± 0.0071 | normalised cell viability [6]: 0.9973 ± 0.0025
